The other results are listed elsewhere or left out. The full chains were built here from the parent and the listed change. Inactive controls read about 0.05.
B1: TEV protease; numbered along this chain (parent)
chain: MGESLFKGPRDYNPISSSICHLTNESDGHTTSLYGIGFGPFIITNKHLFRRNNGTLVVQSLHGVFKVKDTTTLQQHLVDGRDMIIIRMPKDFPPFPQKLKFREPQREERICLVTTNFQTKSMSSMVSDTSCTFPSGDGIFWKHWIQTKDGQCGSPLVSTRDGFIVGIHSASNFTNTNNYFTSVPKNFMELLTNQEAQQWVSGWRLNADSVLWGGHKVFMVKPEEPFQPVKEATQL

Variants of: B1
Test: raw area under fraction-flipped curve 0-4 h after induction (AUC4h, not background-subtracted), DNA-recorder readout of cleavage of the substrate (dimensionless); higher = more cleavage of the substrate by the protease variant
Conditions: temperature: 34 °C; time window: 0-4 h after rhamnose induction
Procedure: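 In vivo DNA recorder in E. coli TOP10(DE3) ΔrhaA at 34 °C. Each TEVp single-site mutant (parent TEVp 0) is paired with a single-site variant of the 7-mer TEVs (canonical ENLYFQ|S). The substrate sits between flexible linkers in a Bxb1-sfGFP-TEVs-SsrA fusion, so cleavage stabilises Bxb1 and speeds flipping of a recombination array, read by NGS. The value is the raw area under the fraction-flipped curve over 0-4 h after rhamnose induction (AUC4h), with ≥20 reads per time point. It is not background-subtracted; inactive controls average about 0.047.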
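Note: Bxb1 expression induced with 0.2% (w/v) L-rhamnose at OD600 near 0.5, cultures sampled hourly, flipped fraction per protease–substrate barcode pair counted by paired-end Illumina sequencing.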

| Variant | area with substrate EALYFQS | area with substrate ECLYFQS | area with substrate EDLYFQS | area with substrate EELYFQS | area with substrate EFLYFQS | area with substrate EGLYFQS | area with substrate EHLYFQS | area with substrate EILYFQS | area with substrate EKLYFQS | area with substrate ELLYFQS | area with substrate EMLYFQS | area with substrate EPLYFQS | area with substrate EQLYFQS | area with substrate ERLYFQS | area with substrate ESLYFQS | area with substrate ETLYFQS | area with substrate EVLYFQS | area with substrate EWLYFQS | area with substrate EYLYFQS |
| --- | --- | --- | --- | --- | --- | --- | --- | --- | --- | --- | --- | --- | --- | --- | --- | --- | --- | --- | --- |
| F140R | 0.0577 | 0.0609 | 0.0492 | 0.0558 | 0.0504 | 0.0661 | 0.0961 | 0.0736 | 0.0586 | 0.0713 | 0.0532 | 0.0593 | 0.0563 | 0.0567 | 0.0629 | 0.0606 | 0.065 | 0.0278 | – |
| K142G | 0.0887 | 0.0814 | 0.0821 | 0.081 | 0.128 | 0.0797 | 0.0687 | – | 0.0728 | 0.0566 | 0.082 | 0.0893 | 0.0804 | 0.0677 | 0.0794 | 0.0898 | 0.0731 | 0.049 | – |
| W144C | 0.0896 | 0.115 | – | 0.113 | 0.0845 | 0.0788 | – | 0.0813 | 0.0922 | 0.0741 | 0.0782 | 0.133 | 0.0986 | 0.0934 | 0.117 | 0.0811 | 0.0832 | 0.0882 | 0.0933 |
| W144H | 0.094 | 0.107 | 0.0954 | – | – | – | 0.109 | 0.0964 | 0.0213 | – | – | 0.0668 | 0.0567 | 0.0897 | 0.0778 | – | 0.0675 | – | 0.0871 |
| W144K | 0.106 | 0.0737 | 0.1 | – | 0.0917 | 0.0696 | 0.0834 | – | 0.0771 | – | – | – | – | 0.068 | 0.0852 | 0.104 | – | 0.0351 | – |
| W144M | 0.0958 | 0.0885 | – | – | – | – | – | 0.0923 | 0.0928 | 0.0845 | 0.0917 | – | 0.0995 | 0.103 | 0.101 | – | – | 0.0803 | – |
| W144P | 0.197 | 0.0808 | 0.106 | 0.106 | – | 0.0839 | 0.0801 | 0.0721 | 0.0856 | – | – | – | 0.104 | 0.0796 | 0.0886 | 0.0964 | 0.082 | 0.0656 | 0.0794 |
| W144R | 0.0709 | 0.102 | 0.0922 | – | – | – | – | 0.0658 | – | – | 0.0892 | – | 0.103 | 0.0924 | – | 0.108 | 0.0593 | 0.0734 | – |
| W144S | 0.129 | 0.102 | – | 0.0837 | 0.138 | – | – | 0.083 | 0.0806 | – | 0.0788 | 0.0967 | 0.114 | 0.123 | 0.0971 | 0.0778 | – | – | 0.0507 |
| W144V | 0.0826 | 0.0887 | 0.107 | 0.106 | 0.102 | 0.0994 | 0.096 | 0.0882 | 0.0705 | 0.0879 | – | 0.0935 | – | 0.0838 | 0.0827 | – | 0.087 | – | 0.0578 |
| W144Y | 0.0891 | 0.0939 | 0.11 | 0.0905 | – | 0.0631 | 0.102 | 0.0759 | 0.0809 | 0.0689 | 0.101 | 0.0792 | – | 0.0951 | 0.0901 | – | – | – | – |
| K148A | 0.117 | 0.112 | 0.154 | 0.12 | 0.0998 | 0.084 | – | 0.0986 | 0.119 | – | – | 0.102 | – | 0.0895 | 0.1 | – | 0.0799 | 0.105 | 0.163 |
| D149M | 0.0911 | 0.108 | 0.191 | 0.102 | 0.0902 | 0.0897 | 0.108 | 0.0721 | 0.0884 | – | 0.0784 | – | 0.0974 | 0.0849 | 0.0711 | 0.0884 | 0.0748 | 0.0641 | 0.0963 |

From the supplement of paper PMC12217912
